Data as given in the RNAGym collection of RNA variant scans (doi:10.1093/nar/gkz1192).
Read counts are not given, so values of variants with three or more changes are uncertain.

B1: CPEB3 Ribozyme (parent)
chain: UAACAGGGGGCCACAGCAGAAGCGUUCACGUCGCAGCCCCUGUCAGAUUCUGGUGAAUCUGCGAAUUCUGCUGUAUAUCUC

Variants of: B1
Test: self-cleavage, relative activity (ratio to wild type); higher = more cleavage; in vitro, sequencing
Procedure, shortened: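 For each CPEB3 ribozyme variant, relative activity is its cleaved/total read fraction divided by the unmutated ribozyme's. Barcoded error-prone PCR libraries were transcribed by T7 RNA polymerase (5 hours, 37°C) and held in DNase I for 15 min before an EDTA stop, with cleavage occurring throughout. Template-switching reverse transcription and Illumina sequencing were used to read the RNAs. A 5-read minimum applied, and results are the mean of three batches.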
Variant A18C A28G U49C U80C has a self-cleavage of 0.07. Variant A18C C37U U51A has a self-cleavage of 0.09. With C17A G19U C62G the self-cleavage was 0.19. Variant A18G A20G G36U U43C G46A U76C has a self-cleavage of 0.19. In the case of C17U G46A C62U, the self-cleavage is reported as 0.09. C17U A18U A47U gave a self-cleavage of 0.14. With A18C A20U C79U the self-cleavage was 0.21. With C17U C27A U60C G73C the self-cleavage was 0.06. With G16C C27A A64U the self-cleavage was 0.17. Work on C17G A21U A35U U67A yielded a self-cleavage of 0.22. For A18G A20G U41A, the self-cleavage was 0.48. G16C U26C G63A U78A gave a self-cleavage of 0.14. In the case of A18C U26C U41C, the self-cleavage is reported as 0.71. In the case of C17U A21G U67C, the self-cleavage is reported as 0.08. In the case of A18G A20G C39U U67C, the self-cleavage is reported as 0.46. Variant C17U C62U U72A has a self-cleavage of 0.14. In the case of A18C A57G A64G U69C U72A U80C, the self-cleavage is reported as 0.08. Variant C17A U31A U49G U51C A56G has a self-cleavage of 0.3. C17G A18G A57G showed a self-cleavage of 0.07. Variant G16C A47G U66C U69C has a self-cleavage of 0.1. Work on G16U A47G G63U yielded a self-cleavage of 0.22. With C17G U54C U69G the self-cleavage was 0.11. For C17U U67C C79A, the self-cleavage was 0.16. With A18C A56U U60G U69C the self-cleavage was 0.28. A18C U26C U48C showed a self-cleavage of 0.06. In the case of A18C A28G A45U, the self-cleavage is reported as 0.38. For C17G A28G A56G U74C U80C, the self-cleavage was 0.06. A18C G24A U31C U51C U72A A75G gave a self-cleavage of 0.15. Work on C17U U31A A35G A56C yielded a self-cleavage of 0.55. G16U C27A A57G A64U showed a self-cleavage of 0.05. With G16C U41A A65G the self-cleavage was 0.34. For A18C U31C A45G U60C, the self-cleavage was 0.15. With C17U G30A U78C the self-cleavage was 0.12. Work on A18C A64G U78C yielded a self-cleavage of 0.18. With A18C C23U C44A U72C the self-cleavage was 0.02. Variant C17U A21G U51C A64G has a self-cleavage of 0.1. Variant C17A A64G C71G G73A has a self-cleavage of 0.05. For A18C U41A U67C A75G, the self-cleavage was 0.09. Variant A18C A20U A28G has a self-cleavage of 0.05. Variant A18C C23U U48A U58A has a self-cleavage of 0.13. Work on A18C U26A U43C U80A yielded a self-cleavage of 0.05. With C17U A21G U60A A65G C71U U78C the self-cleavage was 0.07. In the case of G16U A45U U67A, the self-cleavage is reported as 0.14. For C17U A35U A56U U60C U67C U72A, the self-cleavage was 0.07. C17A A47U U60C C62U A75U showed a self-cleavage of 0.09. A18C G36C U48C U78C showed a self-cleavage of 0.17. C17G A18G A35U U54G U72C showed a self-cleavage of 0.05. A18G A20U A45G A47G U58C G63A showed a self-cleavage of 0.07. Variant C17U A35G U76C has a self-cleavage of 1.2. C17A A35U A56G U58C U69C gave a self-cleavage of 0.14. With A18C A47G C50A U74A the self-cleavage was 0.11. Variant C17A A18U A45G has a self-cleavage of 0.21. Work on C17A A45U U60G yielded a self-cleavage of 0.14. With C17U G19A C39U U54A A57G U72C the self-cleavage was 0.05. With C17A U26A U58G U60C U67C A77G U78C the self-cleavage was 0.15. C17G A45G A65G showed a self-cleavage of 0.05. Work on C17U U31C U60C yielded a self-cleavage of 0.14. With A18C C29U U41A U72C the self-cleavage was 0.07. With C17U G33A G36A U48C U80A the self-cleavage was 0.06. In the case of G16U A28G U31C U41C A56U U66A, the self-cleavage is reported as 0.12. In the case of A18G A20G A45G C50A U69A U80C, the self-cleavage is reported as 0.29. C17U A20U G73A U78C gave a self-cleavage of 0.35. With A18C U26A U54C A64U U69C the self-cleavage was 0.07. C17A A18G A35U U54A A57G gave a self-cleavage of 0.09. C17U U26C U31C U48C U60A gave a self-cleavage of 0.1. Work on C17G A21G C29G U72G U80A yielded a self-cleavage of 0.12. A18C A20G U25C U51C A56G showed a self-cleavage of 0.36. Work on A18C A20G U43C A56U C59U yielded a self-cleavage of 0.05. A18C U25C U26C U43C G52C gave a self-cleavage of 0.8. C17A A18G U26A A75U showed a self-cleavage of 0.08. With A18C C40A U76A the self-cleavage was 0.1. Variant G16C A45G U51C has a self-cleavage of 0.21. In the case of A18C A21G A45G, the self-cleavage is reported as 0.33. Variant A18G A20G U48C A57G has a self-cleavage of 0.39. In the case of C17U U43A A57G, the self-cleavage is reported as 0.53. For A18G A20U A21C U49C A56G, the self-cleavage was 0.29. C17U A18U U49C U51C U69C U72C U78C gave a self-cleavage of 0.09. For G16C C34U U41A U54C U78A, the self-cleavage was 0.04. In the case of G16C U41C U78C, the self-cleavage is reported as 0.19. With A18G A20G U60C the self-cleavage was 0.54. A18C U41A U43C showed a self-cleavage of 0.25. Work on C17G A20U A28G U69C yielded a self-cleavage of 0.16. Work on A18G A20G U26C A45G U74A yielded a self-cleavage of 0.47. Variant A18C A20U U25C A28U C59A A77G has a self-cleavage of 0.14.
